{"source": "paper PMC4336329", "about": "(PLoS ONE, 2015)", "note": "The campaign covered roughly 310,000 compounds. About 14,000 (4.5%) showed an effect of 50% or more. Effects have a minus sign here. This is one part of the list.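 Note: peak tail current of the secondary pulse compared with the same well before compound.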"}
{"target": "human ether-à-go-go-related gene (hERG) potassium channel (human, UniProt Q12809)", "sequence (Q12809 whole entry, looked up)": "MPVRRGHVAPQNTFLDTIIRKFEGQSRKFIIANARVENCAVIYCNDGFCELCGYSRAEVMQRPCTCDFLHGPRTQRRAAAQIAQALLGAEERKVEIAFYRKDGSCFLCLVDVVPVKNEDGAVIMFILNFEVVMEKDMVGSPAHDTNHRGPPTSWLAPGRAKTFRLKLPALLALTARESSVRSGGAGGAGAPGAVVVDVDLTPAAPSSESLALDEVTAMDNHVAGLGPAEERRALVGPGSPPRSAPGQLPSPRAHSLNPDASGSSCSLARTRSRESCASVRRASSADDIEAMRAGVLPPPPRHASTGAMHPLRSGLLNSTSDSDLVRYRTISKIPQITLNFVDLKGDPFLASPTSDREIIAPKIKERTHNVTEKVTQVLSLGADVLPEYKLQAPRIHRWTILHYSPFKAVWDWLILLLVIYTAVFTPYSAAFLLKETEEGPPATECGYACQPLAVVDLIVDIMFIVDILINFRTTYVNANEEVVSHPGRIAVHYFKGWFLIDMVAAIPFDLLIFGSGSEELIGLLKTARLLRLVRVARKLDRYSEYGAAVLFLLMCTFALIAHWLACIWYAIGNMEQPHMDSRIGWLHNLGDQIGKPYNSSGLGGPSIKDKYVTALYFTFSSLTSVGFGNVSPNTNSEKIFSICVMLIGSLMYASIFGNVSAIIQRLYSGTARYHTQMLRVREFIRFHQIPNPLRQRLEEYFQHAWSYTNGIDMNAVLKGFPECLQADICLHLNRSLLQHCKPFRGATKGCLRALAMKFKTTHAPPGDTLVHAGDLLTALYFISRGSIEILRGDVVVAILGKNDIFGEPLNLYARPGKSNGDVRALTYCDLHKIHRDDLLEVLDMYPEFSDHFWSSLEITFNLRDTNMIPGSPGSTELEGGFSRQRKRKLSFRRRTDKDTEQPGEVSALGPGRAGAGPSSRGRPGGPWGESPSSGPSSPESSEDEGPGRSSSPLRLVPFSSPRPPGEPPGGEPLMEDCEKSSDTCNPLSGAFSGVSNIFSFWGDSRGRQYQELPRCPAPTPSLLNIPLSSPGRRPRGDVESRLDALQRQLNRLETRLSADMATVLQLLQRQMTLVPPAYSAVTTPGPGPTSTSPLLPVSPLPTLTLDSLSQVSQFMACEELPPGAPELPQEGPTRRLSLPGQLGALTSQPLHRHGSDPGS", "assay": "primary screen, population patch clamp on CHO cells stably expressing hERG", "units": {"hERG current change (%, negative = inhibition) at 10uM": "%"}}
{"smiles": "CSCC[C@H](NC(=O)N1CCn2c1nc1ccccc12)C(=O)NCc1ccc2c(c1)OCO2", "hERG current change (%, negative = inhibition) at 10uM": -32.4}
{"smiles": "Cc1cc(OCCCCCNCCO)cc(C)c1Cl", "hERG current change (%, negative = inhibition) at 10uM": -28.9}
{"smiles": "COc1ccc(CNC(=O)C2CCCN(c3ncnc4c3nc3n4CCCCC3)C2)cc1", "note": "(stereo not shown)", "hERG current change (%, negative = inhibition) at 10uM": -37.6}
{"smiles": "O=C1CCC(=O)N1CCCCCc1nc(-c2ccccc2)no1", "hERG current change (%, negative = inhibition) at 10uM": 2.45}
{"smiles": "CC(C)CN(C(=O)COC(=O)CCc1c[nH]c2ccccc12)C1CCS(=O)(=O)C1", "note": "(stereo not shown)", "hERG current change (%, negative = inhibition) at 10uM": -17.3}
{"smiles": "O=[N+]([O-])c1cc(S(=O)(=O)NC2=NCCCCC2)ccc1NCC1CCCCC1", "hERG current change (%, negative = inhibition) at 10uM": -19.9}
{"smiles": "O=c1[nH]nc(Cc2ccc(Cl)cc2Cl)c2ccccc12", "hERG current change (%, negative = inhibition) at 10uM": 12.1}
{"smiles": "Cc1ccc(C)n1CCN1CCN(C(=O)c2ccco2)CC1", "hERG current change (%, negative = inhibition) at 10uM": 4.13}
{"smiles": "O=S(=O)(c1cccc2nsnc12)N1CCCC1", "hERG current change (%, negative = inhibition) at 10uM": 3.86}
{"smiles": "Cc1c(C(=O)N2CCNCC2)oc2ccccc12.Cl", "hERG current change (%, negative = inhibition) at 10uM": 14.5}
{"smiles": "O=C(NCn1cnccc1=O)c1ccccc1", "hERG current change (%, negative = inhibition) at 10uM": 21.2}
{"smiles": "CC(CC(=O)O)CC(=O)Nc1cc(C(F)(F)F)cc(C(F)(F)F)c1", "note": "(stereo not shown)", "hERG current change (%, negative = inhibition) at 10uM": 31}
{"smiles": "CCO/C(C)=N/n1c2nc3ccccc3nc2c2c(=O)n(C3CCCC3)c(C)nc21", "hERG current change (%, negative = inhibition) at 10uM": 7.29}
{"smiles": "Cn1c(O)c(/C=C2\\C=Nc3ccccc32)c(=O)n(C)c1=O", "hERG current change (%, negative = inhibition) at 10uM": 15.4}
{"smiles": "Cc1ccc(NC(=O)Nc2nc(-c3ccc(C)s3)cs2)cc1", "hERG current change (%, negative = inhibition) at 10uM": -4.11}
{"smiles": "O=C(Nc1ccc(S(=O)(=O)NC2=NCCCCC2)cc1)c1ccc(Cl)cc1Cl", "hERG current change (%, negative = inhibition) at 10uM": -14.8}
{"smiles": "CC1(C)Cc2ccccc2-c2nnc(-c3ccc4ccccc4n3)n21", "hERG current change (%, negative = inhibition) at 10uM": 7.03}
{"smiles": "COc1cccc(CN2CCN(C(=O)c3ccco3)CC2)c1OC", "hERG current change (%, negative = inhibition) at 10uM": -9.75}
{"smiles": "COC(=O)C[C@H]1c2ccc(C(F)(F)F)cc2S(=O)(=O)N1Cc1ccccc1", "hERG current change (%, negative = inhibition) at 10uM": -42.6}
{"smiles": "CC(C)Cc1nnc(NS(=O)(=O)c2ccc([N+](=O)[O-])cc2)s1", "hERG current change (%, negative = inhibition) at 10uM": 10.5}
{"smiles": "COc1cc2c(cc1OC)CN(C(=O)CCCOc1ccc(Cl)cc1Cl)CC2", "hERG current change (%, negative = inhibition) at 10uM": 1.39}
{"smiles": "CCN(CC)S(=O)(=O)c1cccc(NC(=O)COC(=O)CCC(=O)c2ccc(F)cc2)c1", "hERG current change (%, negative = inhibition) at 10uM": -16}
{"smiles": "COc1ccc(C2(O)CN(c3ccc(C)cc3)C3=[N+]2CCCC3)cc1.[Br-]", "note": "(stereo not shown)", "hERG current change (%, negative = inhibition) at 10uM": -37.5}
{"smiles": "CCn1c(SCC(=O)O)nnc1-c1ccc(S(=O)(=O)N2CCCC2)cc1", "hERG current change (%, negative = inhibition) at 10uM": 16.3}
{"smiles": "O=C(CSc1nccc(=O)[nH]1)c1c[nH]c2ccccc12", "hERG current change (%, negative = inhibition) at 10uM": -7.7}
